# The supplement of paper PMC8728848
# This is one part of the list.
# B1: NanI (Corynebacterium diphtheriae), C6JSW7 (protein)
# chain: MTNTLESNPMTTTTGALTITFATTCDGPLAHIPHHLDLNIIHGRIQGTTAHRRIDAEDPDGLDDGLPHHLCLSVDTTGTHLFIDGYEAFSTTQTEWFDTSELTLNPHGDLTIIDHQILNHAPTPRQARNLAPAAEPLVWFAGSHLSTRDTQRISHLTHGSLRLLMKTRGTGQGGVAFQAHTINGDLTLEIIDGTLIFSVRCHDEDYVRITAPGRWDDGQIYDVVIVCGRGATDIYVDGQQLIHSPGAAFFNDLSGELSVHIGTAASGVRLFGEVQSGMIYPHVFNHHQVQRLATVEPIATQALFDCLLDGAQSYRIPSLITTDSGVIIAGADKRVSIANDAPNDIDFVLRRSVDGGRTWQPPRTILQLPDTACVTDSVLLQDHTTGRIFAFLDQFPAGIGQPNAAFGTGFDADGNRIGHFADGSTCTMPREVDQLEASFFSDPHTAPPGIVFQHPSCHLWMLTSDDDGLTWSTPRDLTPDVKEEWMRFCGTSPGNGIQLQRDTHAGRLLIPMYYTKGDQFFAAALYSDDHGDTWHRGESPDLEMYESTLVEASDGSVLLWARNQHPSGAVAHARSTDGGHSWSQVTFNPNVPEIFSQPNALRVTNPDGIIFANASQLLPFRGRGVLRMSTNDGASWQHNRVFNPRHYVYQCMTQLPDGSIGLLWEREMQGLFFSIIPMTWIMQGYAL
# Legend:
# Experiment in all cases: glycan array binding signal (z-score within array); higher = stronger binding
# Conditions in all cases: glycan notation: IUPAC condensed, linker removed
# [1] = target: Fuc(a1-2)[GalNAc(a1-3)]Gal(b1-4)Glc
# Procedure, shortened: (§1)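 Glycan array binding is given as a within-array Z-score, which can be read as non-binding when negative. The arrays, 3228 of them, came from the Consortium for Functional Glycomics database and were retained only where the protein sequence was available. Z-scores were averaged across arrays of the same protein sequence at different concentrations or buffers and across linkers.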
# [2] = target: Fuc(a1-2)[GalNAc(a1-3)]Gal(b1-4)GlcNAc
# Procedure, shortened: as §1
# [3] = target: Fuc(a1-2)[GalNAc(a1-3)]Gal(b1-4)GlcNAc(b1-2)Man(a1-3)[Fuc(a1-2)[GalNAc(a1-3)]Gal(b1-4)GlcNAc(b1-2)Man(a1-6)]Man(b1-4)GlcNAc(b1-4)GlcNAc
# Procedure, shortened: as §1
# [4] = target: Fuc(a1-2)[GalNAc(a1-3)]Gal(b1-4)GlcNAc(b1-2)Man(a1-3)[Fuc(a1-2)[GalNAc(a1-3)]Gal(b1-4)GlcNAc(b1-2)Man(a1-6)]Man(b1-4)GlcNAc(b1-4)[Fuc(a1-6)]GlcNAc
# Procedure, shortened: as §1
# [5] = target: Fuc(a1-2)[GalNAc(a1-3)]Gal(b1-4)GlcNAc(b1-3)Gal(b1-4)GlcNAc
# Procedure, shortened: as §1
# [6] = target: Fuc(a1-2)[GalNAc(a1-3)]Gal(b1-4)GlcNAc(b1-3)Gal(b1-4)GlcNAc(b1-3)Gal(b1-4)GlcNAc
# Procedure, shortened: as §1
# [7] = target: Fuc(a1-2)[GalNAc(a1-3)]Gal(b1-4)GlcNAc(b1-3)GalNAc
# Procedure, shortened: as §1
# [8] = target: Fuc(a1-2)[GalNAc(a1-3)]Gal(b1-4)[Fuc(a1-3)]GlcNAc
# Procedure, shortened: as §1
# [9] = target: Fuc(a1-2)[GalNAc(a1-3)]Gal(b1-4)[Fuc(a1-3)]GlcNAc(b1-3)GalNAc
# Procedure, shortened: as §1
# [10] = target: Fuc(a1-2)[GalNAc(a1-4)]Gal(b1-4)GlcNAc
# Procedure, shortened: as §1
# [11] = target: Fuc(a1-2)[GalNAc(b1-3)]Gal
# Procedure, shortened: as §1
# [12] = target: Fuc(a1-3)GlcNAc
# Procedure, shortened: as §1
# [13] = target: Fuc(a1-3)[Gal(b1-4)]Glc6S
# Procedure, shortened: as §1
# [14] = target: Fuc(a1-3)[Gal(b1-4)]GlcNAc
# Procedure, shortened: as §1
# [15] = target: Fuc(a1-3)[Gal(b1-4)]GlcNAc(b1-2)Man(a1-3)[Fuc(a1-3)[Gal(b1-4)]GlcNAc(b1-2)Man(a1-6)]Man(b1-4)GlcNAc(b1-4)GlcNAc
# Procedure, shortened: as §1
# [16] = target: Fuc(a1-3)[Gal(b1-4)]GlcNAc(b1-2)Man(a1-3)[Fuc(a1-3)[Gal(b1-4)]GlcNAc(b1-2)Man(a1-6)]Man(b1-4)GlcNAc(b1-4)[Fuc(a1-6)]GlcNAc
# Procedure, shortened: as §1
# [17] = target: Fuc(a1-3)[Gal(b1-4)]GlcNAc(b1-3)Gal(b1-3)[Fuc(a1-4)]GlcNAc
# Procedure, shortened: as §1
# [18] = target: Fuc(a1-3)[Gal(b1-4)]GlcNAc(b1-3)GalNAc
# Procedure, shortened: as §1
# [19] = target: Fuc(a1-3)[Gal(b1-4)]GlcNAc(b1-4)Gal(b1-4)[Fuc(a1-3)]GlcNAc
# Procedure, shortened: as §1
# [20] = target: Fuc(a1-3)[Gal(b1-4)]GlcNAc(b1-4)Gal(b1-4)[Fuc(a1-3)]GlcNAc(b1-4)Gal(b1-4)[Fuc(a1-3)]GlcNAc
# Procedure, shortened: as §1
# [21] = target: Fuc(a1-3)[Gal(b1-4)]GlcNAc(b1-6)GalNAc
# Procedure, shortened: as §1
# [22] = target: Fuc(a1-3)[Gal(b1-4)]GlcNAc(b1-6)[Gal(b1-3)GlcNAc(b1-3)]Gal(b1-4)Glc
# Procedure, shortened: as §1
# [23] = target: Fuc(a1-3)[Gal(b1-4)]GlcNAc(b1-6)[Neu5Ac(a2-3)Gal(b1-3)]GalNAc
# Procedure, shortened: as §1
# [24] = target: Fuc(a1-3)[Gal(b1-4)]GlcNAc6S
# Procedure, shortened: as §1
# [25] = target: Fuc(a1-3)[Gal3S(b1-4)]GlcNAc
# Procedure, shortened: as §1
# [26] = target: Fuc(a1-3)[Gal3S(b1-4)]GlcNAc6S
# Procedure, shortened: as §1
# [27] = target: Fuc(a1-3)[GalNAc(b1-4)]GlcNAc
# Procedure, shortened: as §1
# [28] = target: Fuc(a1-4)GlcNAc
# Procedure, shortened: as §1
# [29] = target: Fuc(b1-3)GlcNAc
# Procedure, shortened: as §1
# [30] = target: Gal(a1-2)Gal
# Procedure, shortened: as §1
binder,measurement,setting,value
B1,glycan array binding signal (z-score),[1],0.192
same,glycan array binding signal (z-score),[2],-0.437
same,glycan array binding signal (z-score),[3],-0.223
same,glycan array binding signal (z-score),[4],0.626
same,glycan array binding signal (z-score),[5],0.289
same,glycan array binding signal (z-score),[6],0.386
same,glycan array binding signal (z-score),[7],-0.468
same,glycan array binding signal (z-score),[8],-0.117
same,glycan array binding signal (z-score),[9],3.26
same,glycan array binding signal (z-score),[10],-0.77
same,glycan array binding signal (z-score),[11],-1.17
same,glycan array binding signal (z-score),[12],-0.875
same,glycan array binding signal (z-score),[13],-0.552
same,glycan array binding signal (z-score),[14],-0.556
same,glycan array binding signal (z-score),[15],-0.135
same,glycan array binding signal (z-score),[16],4.32
same,glycan array binding signal (z-score),[17],-0.296
same,glycan array binding signal (z-score),[18],0.87
same,glycan array binding signal (z-score),[19],1.03
same,glycan array binding signal (z-score),[20],-1.05
same,glycan array binding signal (z-score),[21],3.36
same,glycan array binding signal (z-score),[22],0.74
same,glycan array binding signal (z-score),[23],-0.326
same,glycan array binding signal (z-score),[24],0.132
same,glycan array binding signal (z-score),[25],-0.129
same,glycan array binding signal (z-score),[26],-0.146
same,glycan array binding signal (z-score),[27],-0.164
same,glycan array binding signal (z-score),[28],-0.037
same,glycan array binding signal (z-score),[29],-0.406
same,glycan array binding signal (z-score),[30],-0.646
